The supplement of paper PMC12217912
The other results are listed elsewhere or left out. Sequences were assembled here from the parent chain. Values near 0.05 are background.

B1: TEV protease; numbered along this chain (parent)
chain: MGESLFKGPRDYNPISSSICHLTNESDGHTTSLYGIGFGPFIITNKHLFRRNNGTLVVQSLHGVFKVKDTTTLQQHLVDGRDMIIIRMPKDFPPFPQKLKFREPQREERICLVTTNFQTKSMSSMVSDTSCTFPSGDGIFWKHWIQTKDGQCGSPLVSTRDGFIVGIHSASNFTNTNNYFTSVPKNFMELLTNQEAQQWVSGWRLNADSVLWGGHKVFMVKPEEPFQPVKEATQL

Variants of: B1
Experiment: raw area under fraction-flipped curve 0-4 h after induction (AUC4h, not background-subtracted), DNA-recorder readout of cleavage of the substrate (dimensionless); higher = more cleavage of the substrate by the protease variant
Conditions: temperature: 34 °C; time window: 0-4 h after rhamnose induction
Experimental: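 In vivo DNA recorder in E. coli TOP10(DE3) ΔrhaA at 34 °C. Each TEVp single-site mutant (parent TEVp 0) is paired with a single-site variant of the 7-mer TEVs (canonical ENLYFQ|S). The substrate sits between flexible linkers in a Bxb1-sfGFP-TEVs-SsrA fusion, so cleavage stabilises Bxb1 and speeds flipping of a recombination array, read by NGS. The value is the raw area under the fraction-flipped curve over 0-4 h after rhamnose induction (AUC4h), with ≥20 reads per time point. It is not background-subtracted; inactive controls average about 0.047.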
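Note: Bxb1 expression induced with 0.2% (w/v) L-rhamnose at OD600 near 0.5, cultures sampled hourly, flipped fraction per protease–substrate barcode pair counted by paired-end Illumina sequencing.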

Row | Variant | area with substrate ENLAFQS | area with substrate ENLCFQS | area with substrate ENLDFQS | area with substrate ENLFFQS | area with substrate ENLGFQS | area with substrate ENLHFQS | area with substrate ENLIFQS | area with substrate ENLKFQS | area with substrate ENLMFQS | area with substrate ENLNFQS | area with substrate ENLPFQS | area with substrate ENLQFQS | area with substrate ENLRFQS | area with substrate ENLSFQS | area with substrate ENLEFQS | area with substrate ENLVFQS | area with substrate ENLTFQS | area with substrate ENLWFQS | area with substrate ENLLFQS
1 | V183A | 0.0451 | 0.0655 | 0.0595 | 0.076 | 0.059 | 0.0676 | 0.0777 | 0.0653 | 0.0736 | 0.0581 | 0.0312 | 0.0533 | 0.0706 | 0.0555 |  |  |  |  | 
2 | V183D | 0.0594 | 0.0523 | 0.0407 | 0.0466 |  | 0.0626 |  | 0.0643 | 0.0633 | 0.0526 | 0.0388 |  | 0.055 |  | 0.0439 | 0.0536 |  |  | 
3 | V183W | 0.0617 | 0.0706 | 0.0576 | 0.0715 |  | 0.0516 | 0.0643 | 0.0661 |  | 0.0686 | 0.0617 |  | 0.0603 | 0.0594 | 0.058 |  | 0.0676 | 0.054 | 
4 | V183P | 0.0633 | 0.0772 | 0.0611 | 0.0659 |  | 0.0506 | 0.0971 | 0.0603 |  | 0.0402 | 0.042 | 0.0574 |  | 0.0651 | 0.121 |  |  | 0.0603 | 0.054
5 | G162F | 0.065 | 0.0626 | 0.0605 | 0.0731 | 0.053 | 0.0624 | 0.0684 | 0.0652 |  | 0.0471 | 0.0589 | 0.0599 | 0.0621 | 0.061 | 0.0842 | 0.0617 |  |  | 0.0753
6 | G162D | 0.012 | 0.0623 | 0.0593 | 0.052 |  | 0.0673 | 0.0492 | 0.0879 |  | 0.0674 |  | 0.0703 |  | 0.0649 |  |  |  | 0.104 | 
7 | Q198A | 0.0717 | 0.0687 | 0.0605 | 0.0806 |  | 0.0596 |  |  |  | 0.0623 | 0.0905 |  | 0.103 | 0.051 |  | 0.0735 | 0.086 |  | 0.0935
8 | Q198L | 0.039 | 0.0574 | 0.0534 | 0.0527 |  | 0.0692 |  | 0.0722 | 0.0668 |  | 0.0563 |  |  | 0.0615 | 0.0591 |  |  | 0.0738 | 
9 | Q198T | 0.0518 | 0.0716 | 0.0571 | 0.0816 | 0.0518 | 0.0788 |  | 0.0691 |  | 0.0795 | 0.0658 | 0.0659 |  | 0.0525 | 0.0735 |  |  | 0.0809 | 0.082
10 | S182R | 0.0456 |  | 0.0665 | 0.0505 |  | 0.0508 |  | 0.068 |  | 0.0215 | 0.0559 | 0.0476 |  |  |  | 0.0638 |  | 0.0513 | 
11 | I164Q | 0.0675 | 0.05 | 0.0523 | 0.06 | 0.0616 | 0.0791 | 0.0642 | 0.0447 | 0.0507 | 0.0464 | 0.0575 | 0.037 | 0.0625 | 0.044 | 0.0504 |  |  | 0.0504 | 0.0565
12 | I164G | 0.0707 |  | 0.0334 | 0.0776 |  | 0.0634 | 0.0635 | 0.0527 |  |  | 0.0623 | 0.0394 | 0.0467 |  | 0.0736 |  |  |  | 
13 | R204G | 0.0648 | 0.0567 | 0.0686 | 0.0909 |  | 0.0687 | 0.0889 |  | 0.0601 | 0.068 | 0.051 | 0.06 | 0.0562 | 0.0678 | 0.0648 | 0.0848 |  | 0.0841 | 0.0609
14 | W199P | 0.0557 | 0.063 | 0.0664 | 0.075 |  | 0.0737 | 0.0675 | 0.0804 | 0.0911 |  |  | 0.0633 | 0.0749 |  |  |  |  |  | 
15 | W199F | 0.118 |  | 0.0535 | 0.0667 | 0.0714 | 0.0752 | 0.0723 | 0.0648 |  |  |  |  | 0.068 |  | 0.0637 |  |  |  | 0.0509
16 | S171H | 0.0587 |  | 0.0647 | 0.0793 | 0.0665 | 0.0521 | 0.0601 | 0.0705 | 0.0661 | 0.0734 | 0.0635 |  |  | 0.065 | 0.0297 | 0.0767 | 0.0621 |  | 
17 | T159I | 0.0634 |  | 0.0573 |  |  |  | 0.106 | 0.0589 | 0.0598 | 0.0645 | 0.0635 |  |  |  | 0.0711 |  | 0.0658 | 0.0747 | 0.0809
18 | D149T | 0.0534 | 0.0634 | 0.0575 | 0.0835 | 0.0917 | 0.0634 | 0.0853 | 0.0194 | 0.077 | 0.0745 | 0.0615 | 0.0662 | 0.0613 | 0.0769 | 0.0336 |  |  | 0.0578 | 0.0629
19 | N175G | 0.0611 |  | 0.0625 | 0.0933 |  | 0.0694 | 0.0779 | 0.0481 | 0.0536 | 0.0896 |  | 0.0733 | 0.0742 | 0.0715 | 0.0621 | 0.067 |  | 0.051 | 0.0958
20 | K185C | 0.0851 | 0.0768 | 0.0641 | 0.0716 | 0.0742 | 0.0597 |  | 0.0636 |  | 0.0679 | 0.0787 | 0.0709 | 0.0676 | 0.0733 | 0.064 | 0.0677 |  | 0.0603 | 0.0748
21 | K185M | 0.064 |  | 0.0652 |  |  | 0.0657 |  | 0.0773 | 0.0525 | 0.0574 | 0.0492 |  | 0.0776 | 0.0748 | 0.0625 |  | 0.0763 | 0.077 | 0.0874
22 | G166W | 0.0463 |  | 0.0533 | 0.053 |  | 0.0481 | 0.0538 | 0.0637 | 0.0662 |  | 0.0574 | 0.0396 | 0.0511 |  | 0.0535 | 0.0554 |  | 0.0561 | 0.0449
23 | G166F | 0.0442 |  | 0.0507 | 0.0487 |  |  |  | 0.0569 |  | 0.0534 |  | 0.0497 | 0.0291 | 0.0598 | 0.0451 | 0.0483 | 0.0452 | 0.0554 | 
24 | Q194H | 0.0548 |  |  | 0.114 |  | 0.0574 |  | 0.072 | 0.0698 | 0.0795 | 0.0539 | 0.0859 | 0.0853 | 0.0858 | 0.055 | 0.0812 |  | 0.0733 | 
25 | I167R | 0.0401 | 0.0671 |  | 0.0593 | 0.0452 | 0.0405 | 0.0551 | 0.0499 |  | 0.0609 |  |  | 0.0266 | 0.054 |  |  |  |  | 0.0434
26 | M188N | 0.0605 |  | 0.0685 |  |  | 0.013 | 0.0845 |  |  | 0.0703 | 0.0778 | 0.0613 |  | 0.0699 |  |  |  |  | 0.0643
27 | S158Y | 0.0489 | 0.0615 | 0.0393 | 0.0826 |  | 0.0519 | 0.061 |  |  | 0.0593 | 0.0452 |  | 0.0511 | 0.0442 | 0.0521 | 0.0635 |  | 0.052 | 0.0514
